From PubChem BioAssay AID588453 (National Center for Advancing Translational Sciences (NCATS), 2011)
Among all 390,000 compounds or so, about 4,000 (1%) were called active. This list was built around the results that the source calls inconclusive (neither active nor inactive); the mix of calls is not that of the screen. The call rests on the fitted dose curve; in most records, active means well fitted inhibition curve with a large enough effect; inconclusive means small, poorly fitted or top-dose-only effect; inactive means no such curve, though single readings can be large or run the other way. Where the call is inconclusive, the potency comes from a doubtful curve fit.
Further: nearly all actives have a fitted effect of over 65% in size.
On the % scale 0 is the no-effect control and ±100 the full control effect; potency means the concentration at half of the fitted maximal effect; tags describe the fitted curve by direction and shape.

These compounds were tested against Thioredoxin reductase 1, cytoplasmic (Rattus norvegicus) (UniProt O89049) (assay: qHTS Assay for Inhibitors of Mammalian Selenoprotein Thioredoxin Reductase 1 (TrxR1): qHTS). Conditions: recombinant rTrxR1, NADPH fluorescence consumption, selenite substrate; series mostly up to 114 µM.
Chain of UniProt O89049 (O89049 whole entry, looked up): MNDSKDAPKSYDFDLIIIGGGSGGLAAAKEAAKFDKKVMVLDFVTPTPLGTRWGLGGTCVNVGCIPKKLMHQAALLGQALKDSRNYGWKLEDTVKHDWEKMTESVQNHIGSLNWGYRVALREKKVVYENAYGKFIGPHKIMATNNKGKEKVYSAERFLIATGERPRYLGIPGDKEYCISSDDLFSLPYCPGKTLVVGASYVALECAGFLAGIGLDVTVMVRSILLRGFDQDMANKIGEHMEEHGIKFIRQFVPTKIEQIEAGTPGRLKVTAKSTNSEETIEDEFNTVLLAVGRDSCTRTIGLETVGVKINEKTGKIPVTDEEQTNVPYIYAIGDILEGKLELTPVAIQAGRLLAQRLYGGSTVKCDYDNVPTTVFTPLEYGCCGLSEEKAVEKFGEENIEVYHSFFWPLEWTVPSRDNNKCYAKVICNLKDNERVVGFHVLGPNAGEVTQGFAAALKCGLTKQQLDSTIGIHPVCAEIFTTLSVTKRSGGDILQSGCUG
Procedure, shortened: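 Rat TrxR1 (90 nM in the dispensed reagent) was pre-reduced with 400 uM NADPH for 5 min at room temperature, then incubated with compound for 15 min. After 400 uM selenite was added, NADPH fluorescence (Ex 340/Em 450 nm) was followed for 8 min.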
For `CNc1oc(-c2ccccc2F)nc1S(=O)(=O)c1ccc(C)cc1`, the Potency was inconclusive: 10 µM [inhibitor, full curve]. In the case of `Cc1cccc(Cn2cc(S(=O)(=O)c3ccc(Cl)cc3)c(=O)c3cc4c(cc32)OCO4)c1`, the Potency was “inactive”. `COc1ccc2c(c1)C1OCCC1C(c1ccco1)N2` (configuration not stated) was tested, and the Potency was inconclusive: 89.1 µM [inhibitor, partial curve, poor fit]. With `COc1cc(NS(=O)(=O)c2ccc(NC(=S)Nc3ccccc3)cc2)nc(OC)n1` the Potency was inconclusive: 50.1 µM [inhibitor, partial curve, poor fit]. With `O=C(CN1CCN(Cc2ccccc2)CC1)c1ccccc1` the Potency was inconclusive: 10 µM [inhibitor, single point]. With `COc1ccc(C(=O)NC(=S)NC(C)C)cc1Br` the Potency was inconclusive: 10 µM [inhibitor, full curve]. In the case of `S=c1[nH]c(=S)c2[nH]cnc2[nH]1`, the Potency was inconclusive: 5.01 µM [inhibitor, full curve]. In the case of `C[C@H](CO)N1C[C@H](C)[C@@H](CN(C)C(=O)NC2CCCCC2)Oc2c(NC(=O)CCC(F)(F)F)cccc2C1=O`, the Potency was “inactive”. For `Cc1cccc(NC(=S)NC2CC3CCCC(C2)N3CC(C)C)c1C` (configuration not stated), the Potency was inconclusive: 14.1 µM [inhibitor, partial curve, poor fit]. `COC(=O)C(C)Oc1ccc2cc(-c3ccccc3)c(=O)oc2c1` (configuration not stated) was tested, and the Potency was inconclusive: 100 µM [inhibitor, single point]. `Cc1ccc(C(=O)NC(=S)Nc2ccc(N3CCOCC3)cc2)cc1C` was tested, and the Potency was inconclusive: 0.141 µM [inhibitor, full curve, poor fit]. With `Cc1n[nH]c(=S)n1/N=C/c1cccc(OCc2ccccc2)c1` the Potency was “inactive”. `CCOC(=O)c1ccc(N=c2ssnc2Cl)cc1` was tested, and the Potency was inconclusive: 25.1 µM [inhibitor, single point]. For `C=C1C(=O)c2sccc2C(c2ccc(OC)c(OC)c2)C1COC(C)=O` (configuration not stated), the Potency was inconclusive: 2.24 µM [inhibitor, partial curve, poor fit]. For `Cc1ccc2c(c1)CCC2=O`, the Potency was inconclusive: 35.5 µM [inhibitor, partial curve, poor fit]. `O=C(CSc1ccc(C(F)(F)F)cn1)Nc1ccccc1` was tested, and the Potency was inconclusive: 39.8 µM [inhibitor, single point]. For `CCN(CC)CCN1C(=O)C(O)=C(C(=O)c2ccco2)C1c1ccccn1` (configuration not stated), the Potency was inconclusive: 44.7 µM [inhibitor, partial curve]. With `CCCCC(=O)NC(=S)Nc1ccc(NC(=O)C(C)C)c(OC)c1` the Potency was inconclusive: 28.2 µM [inhibitor, partial curve, poor fit]. `O=C(O)CSc1nnc(-c2cc3ccccc3o2)n1-c1ccccc1` was tested, and the Potency was “inactive”. For `COc1cccc(C(=O)NC(=S)Nc2ccc3oc(=O)ccc3c2)c1`, the Potency was inconclusive: 10 µM [inhibitor, full curve]. In the case of `CC(=O)OC(C(=O)NCc1ccco1)c1ccncc1` (configuration not stated), the Potency was inconclusive: 44.7 µM [inhibitor, partial curve]. In the case of `CCCn1nc(NC(=O)c2ccco2)c2cc3cc(C)ccc3nc21`, the Potency was inconclusive: 79.4 µM [inhibitor, partial curve, poor fit]. For `O=c1[nH]c2cc3c(cc2cc1CN(CCN1CCOCC1)C(=S)NCC1CCCO1)OCO3` (configuration not stated), the Potency was inconclusive: 7.08 µM [inhibitor, full curve]. For `CC(=O)N1CCC(O)(c2cccc(C(F)(F)F)c2)CC1`, the Potency was “inactive”. `CN(C)c1ccc(/C=C/c2cccc3cc4ccccc4nc23)cc1` was tested, and the Potency was inconclusive: 22.4 µM [inhibitor, full curve]. For `O=c1[nH]sc2ccccc12`, the Potency was “inactive”. For `S=c1[nH]nc(-c2ccccn2)n1/N=C/c1ccco1`, the Potency was “inactive”. In the case of `COc1ccc(S(=O)(=O)N(Cc2cc3ccc(OC)cc3[nH]c2=O)CC2COCCO2)cc1` (configuration not stated), the Potency was inconclusive: 39.8 µM [inhibitor, single point]. For `CCc1ccc(N(C(=O)c2ccco2)C(C(=O)NC2CCCC2)c2ccncc2)cc1` (configuration not stated), the Potency was “inactive”. In the case of `Cc1ccc2c(CC(=O)N(Cc3ccc(Cl)cc3)Cc3ccco3)coc2c1`, the Potency was active: 50.1 µM. `Cc1oc(-c2ccc(Cl)cc2)nc1CSCC(=O)NCc1ccccc1Cl` was tested, and the Potency was “inactive”. For `O=S(=O)(CC(CN1CCCCC1)N1CCCCC1)c1ccccc1` (configuration not stated), the Potency was inconclusive: 44.7 µM [inhibitor, partial curve]. With `Cc1ccc(Cl)cc1N1CCN(CCCNC(=O)c2nnc(Cc3cccc(Cl)c3)o2)CC1` the activity change, negative = inhibition was inactive: 16.7% [at 0.457 µM]. With `CCN(CC)CCn1c2c(c(SCC(=O)Nc3cccc(C(F)(F)F)c3)nc1=O)CCC2` the Potency was “inactive”. In the case of `CCOc1ccc(-c2cn3c(n2)sc2cc(C(=O)NCCCN(CC)CC)ccc23)cc1`, the Potency was inconclusive: 89.1 µM [inhibitor, single point]. For `Cc1ccc(Cl)c(NC(=O)CCl)c1Cl`, the Potency was inconclusive: 44.7 µM [inhibitor, partial curve, poor fit]. For `CC(=O)C1=C(C)NC(SCc2ccc(C#N)cc2)=C(C#N)C1c1ccco1` (configuration not stated), the Potency was inconclusive: 56.2 µM [inhibitor, partial curve, poor fit]. For `Cc1cc(Nc2ccccc2Cl)n2nnnc2n1`, the Potency was inconclusive: 31.6 µM [inhibitor, single point]. For `CCC(Cc1ccccc1)NC(=O)/C=C/c1ccco1` (configuration not stated), the Potency was inconclusive: 35.5 µM [inhibitor, single point]. With `CC1OC(Oc2c(-c3cc(O)c(O)c(O)c3)oc3cc(O)cc(O)c3c2=O)C(O)C(O)C1O` (configuration not stated) the Potency was “inactive”. In the case of `Cc1cccc(Nc2c(F)c(F)c(F)c(F)c2C(=O)O)c1`, the Potency was inconclusive: 79.4 µM [inhibitor, single point]. `COc1cc(-c2n[nH]c(=S)n2-c2cc(C(F)(F)F)ccc2Cl)cc(OC)c1OC` was tested, and the Potency was inconclusive: 1 µM [inhibitor, full curve]. `Cn1c(-c2ccc(C=O)s2)nc2ccccc21` was tested, and the Potency was inconclusive: 44.7 µM [inhibitor, partial curve]. `Cc1cc(=S)c2ccccc2[nH]1` was tested, and the Potency was inconclusive: 2.82 µM [inhibitor, partial curve, poor fit]. With `C=C1C(=O)O[C@@H]2[C@H]3O[C@]3(C)CC/C=C(\C)CC[C@@H]12` the Potency was active: 56.2 µM. In the case of `CCOC(=O)C1C(=O)NC(c2ccccc2)=NC1c1ccc(O)c(OC)c1` (configuration not stated), the Potency was “inactive”. With `CC1C(C#N)=C(SCC(N)=O)NC2=C1C(=O)CC(C)(C)C2` (configuration not stated) the Potency was “inactive”. With `C=CCSc1nnc(-c2sc(-c3ccccc3)nc2C)n1C` the Potency was “inactive”. `Cc1cccc(CSC2=NCCN2S(=O)(=O)c2ccc(F)cc2)c1` was tested, and the Potency was “inactive”. For `Cc1ccc(S(=O)(=O)c2nc(-c3cccc(C)c3)oc2N2CCCCC2)cc1`, the Potency was inconclusive: 56.2 µM [inhibitor, partial curve, poor fit]. In the case of `CCOC(=O)c1c(-c2ccc(C)o2)csc1NC(=O)COC(=O)c1ccc(NC(N)=O)cc1`, the Potency was inconclusive: 56.2 µM [inhibitor, partial curve]. `COc1ccc2c(c1OC)C(=O)N1c3ccccc3N=C(c3ccc([N+](=O)[O-])cc3)CC21` (configuration not stated) was tested, and the Potency was inconclusive: 50.1 µM [inhibitor, partial curve]. For `O=C(Cn1cnc2ccccc21)Nc1ccc2c(c1)OCCCO2`, the Potency was “inactive”. `COc1ccccc1-c1cc(C(F)(F)F)nc(S(=O)(=O)CCCC(=O)Nc2cc(OC)c(OC)c(OC)c2)n1` was tested, and the Potency was active: 22.4 µM. With `Cc1cc(C)nc(N/N=C/c2cccc(Cl)c2)n1` the Potency was “inactive”. In the case of `CCCN(CCC)CCNC(=O)c1cn(C)c(=O)c2c1c1ccccc1n2C`, the Potency was inconclusive: 25.1 µM [inhibitor, single point]. With `Cc1ccc(CC(=O)N2CCN(c3cccc(C(F)(F)F)c3)CC2)cc1` the Potency was “inactive”. `Cc1c(-c2ccccc2)nc(-c2ccccc2)[nH]c1=O` was tested, and the Potency was “inactive”. For `COc1ccc(NS(=O)(=O)c2ccc3oc(=O)ccc3c2)cc1`, the Potency was inconclusive: 1.12 µM [inhibitor, full curve]. In the case of `COc1ccc(C(=O)c2sc(Nc3cccc(OC)c3)c(C(=O)Nc3cccc(C)c3C)c2N)cc1`, the Potency was “inactive”. `CCS(=O)(=O)c1ncc(Cl)c(C(=O)N2CCN(c3cccc(Cl)c3)CC2)n1` was tested, and the Potency was active: 0.398 µM. `Cc1ccc(NC(=S)NC(=O)c2cccs2)cc1F` was tested, and the Potency was inconclusive: 8.91 µM [inhibitor, partial curve, poor fit]. With `CC(=O)OC(C(=O)NCc1ccco1)c1cccnc1` (configuration not stated) the Potency was inconclusive: 25.1 µM [inhibitor, single point]. With `O=C(CN1C(=O)NC2(CCCC2)C1=O)NCCN1C(=O)S/C(=C\c2ccccc2F)C1=O` the Potency was “inactive”. `O=C(O)c1cc(-c2ccc(/C=C3\NC(=O)N(c4ccc(Cl)cc4)C3=O)o2)ccc1Cl` was tested, and the Potency was inconclusive: 31.6 µM [inhibitor, partial curve]. `CN(CC(=O)Oc1ccc(-c2nnco2)cc1)S(=O)(=O)c1ccc(F)cc1` was tested, and the Potency was inconclusive: 50.1 µM [inhibitor, partial curve]. For `C/C(=C\c1ccco1)C1C(C#N)=C(N)OC2=C1C(=O)CC(C)(C)C2` (configuration not stated), the Potency was inconclusive: 56.2 µM [inhibitor, partial curve, poor fit]. `COc1ccc(Br)cc1CN(C)C(=O)Cc1ccc(OC)c(S(=O)(=O)N2CCOCC2)c1` was tested, and the Potency was “inactive”. In the case of `CC1(C)CC(=O)C(C(c2ccc(F)cc2)C2C(=O)CC(C)(C)CC2=O)C(=O)C1`, the Potency was “inactive”. `CCOC(=O)c1c(-c2ccccc2)csc1NC(=O)c1nc(S(=O)(=O)CC)ncc1Cl` was tested, and the Potency was active: 3.16 µM. With `COc1ccc(CC(=O)N/N=C(\C)CC(=O)Nc2cccc(F)c2)cc1` the Potency was “inactive”. For `O=C1OC(/C=C/c2ccccc2)=NC/1=C/C=C/c1ccccc1`, the Potency was inconclusive: 28.2 µM [inhibitor, partial curve, poor fit].
